This note sets out measurements from the supplement of paper PMC3334620.

Over roughly 33,000 sequences, “E-score (-0.5 to 0.5)” has its median near -0.054; the highest 2% begin near 0.35. Some of the results follow.

The target in the assay is T1, Stb5 (UniProt P38699).
T1 sequence: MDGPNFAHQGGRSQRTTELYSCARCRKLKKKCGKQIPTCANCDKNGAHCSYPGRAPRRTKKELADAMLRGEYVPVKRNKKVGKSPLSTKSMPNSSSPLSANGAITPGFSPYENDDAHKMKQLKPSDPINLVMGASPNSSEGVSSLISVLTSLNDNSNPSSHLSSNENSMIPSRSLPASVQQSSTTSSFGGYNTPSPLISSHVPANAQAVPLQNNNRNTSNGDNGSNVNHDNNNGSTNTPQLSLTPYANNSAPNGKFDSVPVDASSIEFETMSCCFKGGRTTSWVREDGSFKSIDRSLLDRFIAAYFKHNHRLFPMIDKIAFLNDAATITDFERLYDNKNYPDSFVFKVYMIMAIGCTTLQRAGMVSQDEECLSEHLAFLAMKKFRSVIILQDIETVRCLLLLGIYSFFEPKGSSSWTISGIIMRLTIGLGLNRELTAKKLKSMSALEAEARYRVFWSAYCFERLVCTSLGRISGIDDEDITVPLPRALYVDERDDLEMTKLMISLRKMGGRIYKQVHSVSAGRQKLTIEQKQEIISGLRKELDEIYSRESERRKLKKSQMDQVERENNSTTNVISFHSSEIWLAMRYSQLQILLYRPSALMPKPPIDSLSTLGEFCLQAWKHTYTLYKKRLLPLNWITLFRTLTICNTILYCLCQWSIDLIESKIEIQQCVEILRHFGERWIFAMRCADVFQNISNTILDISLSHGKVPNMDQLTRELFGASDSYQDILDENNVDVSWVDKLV
The experiment in a line: PBM E-score (8-mer binding enrichment) (E-score (-0.5 to 0.5)); higher = stronger / more preferred TF binding; most listed sequences are background and not binding sites. Particulars: protein concentration: 200 nM; construct: GST-full length. As to the method:
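Universal 'all 10-mer' protein binding microarrays (Agilent AMADID 015681) probed with GST-tagged S. cerevisiae TFs (full-length or DBD) made by in vitro transcription/translation (PURExpress), about 100-200 nM. Bound TF was detected with fluorescent anti-GST. Each ungapped 8-mer (which stands for itself and its reverse complement) is scored by the PBM enrichment score (E-score), a modified Wilcoxon-Mann-Whitney statistic from -0.5 to +0.5, computed with the Universal PBM Analysis Suite. Scale: above 0.35 generally sequence-specific binding.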
AGGGCGGA: the “PBM E-score” value came to 0.338.
The figure for AAGGCTGT is -0.145; for AGGGCCTC it is -0.187.
The figure for CGCGGTAA is 0.343; for GGTCGAAA it is 0.0139; for GACCCTAC it is -0.0737.
For GGTACTCA, the “PBM E-score” value is -0.0471.
Take ATAGCGAT: the “PBM E-score” value was -0.136.
The result for CTGCCGTA reads -0.0524; that for GCACCATA, -0.081.
Turning to CTTTTGTC, the “PBM E-score” value amounted to 0.125.
The figure for TATCACAA is -0.0631; for CCCTTCAC it is -0.228.
The figure for GGTTCGTA is -0.00108; for CGCTCCAC it is 0.0595; for CATTTTAG it is 0.189.
As to ACAGCCTC, the “PBM E-score” value is -0.182.
Consider TCTTTACA, for which the “PBM E-score” value was -0.117.
Turning to ATGGCATG, the “PBM E-score” value was found to be 0.0369.
The figure for AGCTAAAA is -0.139.
For TAGAGCAA, the “PBM E-score” value was -0.202.
The result for ATTCGAAG reads -0.21; that for GCAAAGCA, -0.209.
The figure for GCTCGGCC is 0.105; for AGGGCTCA it is -0.23.
Consider ACAGTACT, for which the “PBM E-score” value was -0.197.
Turning to CTCCCGTC, the “PBM E-score” value worked out at 0.148.
The result for AATCGGGA reads 0.182.
The figure for CTATCGAC is -0.212.
The result for CTGTACGC reads -0.0128; that for GCCGAAAA, 0.168; that for AGTCAACT, -0.23.
For CTAGTGCA, the “PBM E-score” value was -0.0477.
For CAATCGGC, the “PBM E-score” value came to 0.184.
With ACAAATTC, the “PBM E-score” value is 0.0583.
The result for GCCAAACA reads -0.0149; that for TGTGCCAA, -0.147.
For the sequence GCCGCACC, the “PBM E-score” value came to 0.184.
The result for CCTGACAG reads -0.193; that for CCAAGCTC, -0.0641.
On to CACAATAA, for which the “PBM E-score” value was -0.2.
As to CAGTATTC, the “PBM E-score” value was -0.0905.
Consider CTACGTAA, for which the “PBM E-score” value came to 0.0153.
With ATGCCTGC, the “PBM E-score” value is -0.0616.
The figure for CATACAGA is -0.155.
Turning to ATGGAGGC, the “PBM E-score” value came to 0.0494.
The figure for AAGTTCGA is -0.0284; for GCCGTCAA it is 0.174.
With CCTGATCC, the “PBM E-score” value was -0.125.
The figure for CGAGCTTA is -0.0828; for AAGCTTGT it is 0.0522.
As to CTTCTGCC, the “PBM E-score” value was -0.0456.
With GTTTGGCA, the “PBM E-score” value was determined as 0.0166.
The result for AAGGTTTG reads -0.0853; that for AGCGACAA, -0.163; that for TATGGCAA, -0.175.
The figure for CTGGAGCA is -0.295; for GACGGCTC it is 0.0639; for CCTATCTC it is 0.00264.
As for AAATACCC, the “PBM E-score” value stood at 0.279.
Regarding CCAATCTC, the “PBM E-score” value came to 0.0245.
For the sequence ACCTAACC, the “PBM E-score” value worked out at 0.0301.
Turning to ATGGTATG, the “PBM E-score” value is -0.0521.
Consider GTATCTTA, for which the “PBM E-score” value is 0.104.
As to CCAAATAA, the “PBM E-score” value is -0.0406.
In the case of ACATGACA, the “PBM E-score” value was -0.122.
The figure for AAATCAAG is -0.107; for ACCGCTTC it is 0.318; for CCAGGTGA it is -0.289.
Regarding AGGGGGAC, the “PBM E-score” value was -0.248.
For the sequence GAGACGAA, the “PBM E-score” value was -0.175.
The figure for CGTGTTCC is 0.0976; for CGAGACCC it is 0.079.
For CTTCGTTC, the “PBM E-score” value was -0.327.
GCGTCTCC: the “PBM E-score” value is 0.0885.
As for ATAATGAT, the “PBM E-score” value is -0.192.
The figure for CTTTCTCA is -0.0284.
For the sequence GAAAAAAC, the “PBM E-score” value is 0.118.
With AGATGGAG, the “PBM E-score” value is -0.228.
The result for CTTGATGC reads -0.00685; that for AGGTGCCA, -0.0687; that for CACCTGGC, -0.239.
The figure for GAGTAGGC is 0.0237.
The figure for ATACGGTA is 0.201.
For the sequence ATACCACA, the “PBM E-score” value was -0.206.
GCGGTAGC: the “PBM E-score” value turned out to be 0.159.
The result for TCGGCAGA reads 0.149; that for ACCCAACC, -0.182.
The figure for AAGAACTT is -0.103; for GTCCCTCA it is -0.0746; for CGGTCTCA it is 0.376.
The result for GTCAAGCA reads 0.0133; that for AGTTAAAT, 0.0541; that for ATTCAACC, -0.113.
As to TAAGTGGA, the “PBM E-score” value is -0.0008.
The result for AGTCGCTG reads -0.225; that for CCGGAAGC, 0.138.
The result for ATCTCCAA reads -0.0741.
The result for ACAGTAAG reads -0.239; that for CGCTCGTA, -0.0378.
CTACAATA: the “PBM E-score” value was -0.061.
The result for TAACTGCA reads -0.27; that for AAGTGAGA, -0.106.
The figure for TAGCGGGA is 0.194; for GCTACAAC it is -0.0936.
The result for ATCATCAA reads -0.0837; that for ATTCTCTC, -0.173.
As to TCGATGAA, the “PBM E-score” value is -0.0714.
Consider CCTCCGGA, for which the “PBM E-score” value came to 0.219.
Take GTGTTTTA: the “PBM E-score” value worked out at 0.164.
